# Results as given in PubChem BioAssay (NCI).
# The source holds several records for some structures; these can differ, active in one and inactive in another.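 Growth was measured after 48 h exposure to one concentration of compound in 96-well plates. Values under 10 count as active.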 Certain results were filed several times, with different values. They are shown here; other results are not. An entry can have further records. For some assays here: This drug was run again and again over the years, at the concentration stated with the values; one value stands for one run. Signs of the kind (2×) count equal records among those shown. Some values that stand alone complete this part of the results. The source made the active and inactive calls.
# How the values were obtained:
# RPMI-8226 leukemia = assay: NCI-60 one-dose screen, 48 h (100 = growth as untreated, 0 = no growth, -100 = all killed)
# OVCAR-8 ovarian = assay: as above; details: 0.25 µM
smiles,measurement,setting,value
COc1cccc2c1C(=O)c1c(O)c3c(c(O)c1C2=O)C[C@@](O)(C(=O)CO)C[C@@H]3OC1CC(N)C(O)C(C)O1 (stereo partly drawn),growth,"RPMI-8226 leukemia; 0.25 µM, runs of 2016","inactive: 34.9 (2×), 37, 32.4 (2×), 40.1 (2×), 48.5, 40.6, 31.8, 25.4, 36.2, 39.2, 28.3, 27.1, 43.7, 29, 27.5, 41.1, 48.2, 28, 43.9 (2×), 49.1, 32.7, 30.1, 45.3, 31.9, 29.6, 22.6, 34.1, 33.4, 26.8, 26.4, 10, 12.4, 23.2, 20.8, 17.3, 45.8, 50.7 (2×), 28.5, 49 (2×), 46.1, 29.7 (2×), 24.8, 46.2, 46.6, 52.8 (2×), 43.3, 56.3, 56.4, 30.9, 43.1 (2×), 52.7, 52.2, 42.5, 43.2, 61.6, 47.5, 55.9, 73, 68.8, 49.2, 54.6, 46.4, 46.8, 46, 44.5, 47.4, 37.8, 29.9, 37.4, 53.1, 42.2%"
same,growth,"RPMI-8226 leukemia; 0.25 µM, runs of 2017","inactive: 40.6, 37, 33.7, 31, 24.9, 19.9 (2×), 16.8, 20.9 (3×), 26.8 (2×), 33 (2×), 25.7, 16.9, 15, 29.4 (3×), 27.2 (2×), 28.3, 22.6 (2×), 23.2, 26.5 (2×), 27.1, 22.4, 19.5, 19.2, 22.2, 19.7, 27, 23.1, 27.9, 26.1, 34.3, 33.9 (2×), 26.9, 28.2, 19.6 (2×), 25.5, 25.4 (2×), 32.9, 30.7, 33.8, 13, 24.7 (2×), 26.2, 31.4, 16.2, 22.3, 15.6, 22, 30.1, 21.9 (2×), 23, 28.8, 19.3, 23.9, 20.8, 35.5, 33.6, 34.7 (2×), 31.3, 31.5, 36.4, 32.5, 31.1, 48.3, 36, 24.3, 13.7% and active: 1.21%"
same,growth,"RPMI-8226 leukemia; 0.25 µM, runs of 2018","inactive: 41.1 (2×), 43, 25.7, 26.4, 27.3, 34.8 (2×), 38.9, 32.1, 43.9, 38.3, 38.1, 48.7, 38.8, 29.9, 36.2, 17.1, 42.9, 29.2, 25, 19.1, 26.1, 43.2, 47.5, 53.8, 47.7, 62.6, 65.1, 43.8 (2×), 48.3, 52.8, 44.5, 54.5, 53.3, 59, 72.4, 68.1, 65.7, 61.7 (2×), 60.6, 63.3, 63.9, 36.4, 23, 12.5% and active: 6.24%"
same,growth,"RPMI-8226 leukemia; 0.25 µM, runs of 2019","inactive: 12.2, 30.1, 30, 28.3, 30.7, 38.9, 25.7, 20.2, 32.7, 39.9, 36.3, 45.6, 21.2, 24.8, 34.5, 26.3, 19, 33.9, 49.3, 48.6, 37.4, 42.1, 24.3, 17.4, 34.9, 29.4, 33.2, 23.4, 25, 26.2, 35.6 (2×), 34.7, 33.5, 52.5, 31.4, 26.4, 37.1, 43.2, 54.9, 32.5, 18, 21.6, 15.1% and active: 9.41%"
same,growth,"RPMI-8226 leukemia; 0.25 µM, runs of 2020","active: -0.901, -1.04, 4.78, -0.928, 8.41% and inactive: 28.3, 21.5, 18.7, 24.8, 26.8, 10.9, 11.2, 24, 14.3, 31, 31.4, 40.3, 21.1, 45.5, 41.3, 37.8, 18.9, 27.2, 13, 16.7%"
same,growth,"RPMI-8226 leukemia; 0.25 µM, runs of 2021","inactive: 17, 24.4, 22, 36, 33, 31.8, 28.9, 35.4 (2×), 26.7 (2×), 30, 19.2 (2×), 28.4 (2×), 21.7, 21.8, 39, 33.3, 30.1, 29.7, 22.7, 21, 32.3, 25, 26.2, 34.5, 27.8, 32.1, 19.5, 27.5, 39.8, 29.4, 26.5, 24.1, 25.3, 31, 33.6, 49.9, 42.1, 46.4, 54.6, 23.9, 25.5, 25.7, 16.7, 18, 27.3, 10.6, 12.3, 31.9, 22.9, 21.9%"
same,growth,"RPMI-8226 leukemia; 0.25 µM, runs of 2022","active: 2.28, 6.62, 7.08, 9.59% and inactive: 33.9 (2×), 43.1, 17.6, 18.2, 32.9, 31.1, 37.8, 41.3, 24.8, 16.7, 12.2, 50.8, 58, 19.7, 51.2, 43.6, 65.1, 10, 13.2, 27.4, 26.8, 24.6%"
same,growth,"RPMI-8226 leukemia; 25 µM, runs of 1991","active: -14.5, -23.8, -26, -5, -27.9, -34.3, -10.6, -12.3, -46.8, -32.7, -16.5, 3.93, -4.91, 8.26, -26.7, -9.5, -45.2%"
same,growth,"RPMI-8226 leukemia; 25 µM, runs of 1992","active: -16.7, -17.7, -23.4, -24.5, -22.3, -25, 5.1, -7.47, -21.5, -11.2, -12.5, -21, -45.9, -17.5 (2×), -10.8, -12.9 (3×), -21.6, -29.3 (2×), -31.4, 1.02, -8.57, -20.2, 3.09, -17.2, -25.9, 4.18, -5.16, -26.6, 7.83, -12.4 (2×), -52.5, -5.04, -8.72, 7.3, -19, 3.89, 5.11, 7.24, -24, -4.06, 9.47, -8.27, -18.3, -35.3, 6.39, -12, -1.89, -13.3, 4.01, -38.4, -28.3, -0.352, -14.5, -14.4, -25.8, -7.67, -25.5, -22.8, -18.1, -17.9, -29.7, 3.06, -16.6, 8.25, -11.6, -0.408, -37.1, -19.3, -23.8, -28.6, -49, -33.1, 0.652, -2.5, -31.2, -21.3, -10.2, -22.9, -10.5, -10.9, -44.9, -30.6, -1.66, -10.4, -23.7, 7.76, -56.2, -25.1, -15.9, -30.1, -20.5, -6.33, -22.7, -40.3, -18.7 (2×), -22.1, -8.51, -29.2, -18.5, -72.2, -28.7 (2×), -33.8, 2.02, -15.2, -2.19, 1.62, -33, -6.03, 1.82, -22.5, -17.4% and inactive: 29.4%, 15.8%"
same,growth,"RPMI-8226 leukemia; 25 µM, runs of 1993","active: -18.1, -4.44, 1.84, -39.5, -30.8, -12 (2×), -21.6, 4.31, -0.754, -35.1, -41, -19.4, -21.4, -25.9, 7.27, -24.3, -39.4, -15.8, -26.5, -41.1, -17.3, -44.1, -28.9, -41.6, -24.2, -36, -38.9, -49.5, -14.3, -44.5, -23.6, 8.78, 0.0457% and inactive: 15.2, 25.4, 13.4, 17.7, 36.7, 17, 16.8, 27.7, 19.9%"
same,growth,"RPMI-8226 leukemia; 25 µM, runs of 1994","active: -9.91, -35.7, -32.4, -38.7, -5.39, -12.6, -10.1, -26, 1.83, -50.8, -29.2, 8.02, -30.7, 0.155, -57.5, -26.5, -23.2, -45.3, -7.43, -15.3, -13.1, -20.4, 1.29, -12, -16.7, 7.3, -2.08, -26.3% and inactive: 103%, 29.8%"
same,growth,"RPMI-8226 leukemia; 25 µM, runs of 1995","active: -21.4, -32.7, -13.1, -29, -38.1, -8.77, -24.7, -36.6, 0.861, -14.3, -33, -31.2, -39.9, -24.2, -30.2, 1.62, -37.3, 5.94, -9.67, -18.6, -48.1, -26.4, -29.2, 7.84, -26.7, -10.8, -49.3, -36, -23.6, -17, -48.2, -28.1, -51.2% and inactive: 44.3%, 30.4%"
same,growth,"RPMI-8226 leukemia; 25 µM, runs of 1996","active: -49.4, -2.37, -38, -2.4, -29.9, -25.4, -17.7, -20.2, -31.3 (2×), -17.4, -43.8, -41.7, -31.6, -24.5, -67.6, -37.8, -50.1, -14.8, -28.1, -27.2, -44.7, -19.7, -4.58, -11.7, -10.6, -32.3, -23, -40.4, -41.8, -9.83, -35.3, -29.2, -20.3, -19.3, -32.6, -25.7, 4.23, -47.6, -44.8, -21.6, -6.03% and inactive: 17.1, 113, 25.6, 26.2, 13.9, 10.4%"
same,growth,"RPMI-8226 leukemia; 25 µM, runs of 1997","active: -6.61, -10.2, -31.6, -21.1, -25, -41.4, -10.3, 8.16, -20.8, -3.96, -3.31, -23, 9.38, -31.4, -28, -28.4, -54.7, -22.5, -24, 5.45, -16.1, -16.4, -4.5, -22.8, -22.1, -32.6, -11.2, -6.5, 4, -7.39, -12.3, -36.2, -8.29, -24.4, -26.4, -42% and inactive: 23, 41, 96.8, 58.7, 16.1%"
same,growth,"RPMI-8226 leukemia; 25 µM, runs of 1998","inactive: 43.2%, 91.5%, 10.2% and active: -5.6, -13.5, 8.02, -74.8, -11.6, -12.5, -49.4, -62.2, -29.4, -48.5, -19, -40.4%"
same,growth,"RPMI-8226 leukemia; 25 µM, runs of 1999","active: -1.08, -29.6, -29.1, -64.6, 7.42, 0.195, -80.5, -34.2, 3.92, 4.13, -59.6, -20.5, 5.86, 6.44%"
same,growth,"RPMI-8226 leukemia; 25 µM, runs of 2000","active: -75%, 8.67%, -28.6%"
same,growth,OVCAR-8 ovarian; runs of 2006,active: -1.27%
same,growth,OVCAR-8 ovarian; runs of 2007,"inactive: 40.5, 52.6, 33.7, 37.4, 43.1, 48.4, 44.6, 44.9, 42.9 (3×), 44.8, 41, 45.9, 30.5, 39.4 (2×), 42, 33.6, 41.1, 33.8, 37.5 (2×), 48.2, 49.6, 37.8, 34.7, 47, 31.5, 47.5, 46.4, 50.6, 51.5, 54.3, 42.8, 39.1, 42.4, 52.9%"
same,growth,OVCAR-8 ovarian; runs of 2008,"inactive: 40.5 (2×), 41.6, 36.3, 50.2, 54.5, 48.6 (2×), 53, 49.6, 53.4, 64.4, 26.1, 36.6, 23.7, 47.5, 34.4, 34.2, 35, 28.3, 25.7, 34, 24.6, 42, 46.2, 46.7 (3×), 83.8, 43.6, 37.8, 27.7, 41.7, 35.8 (2×), 34.7, 25.5, 41.2, 41.1, 36.4, 44.8, 43.8, 41, 37.1, 44.1, 56, 43.1, 43.7, 52.6, 47.8, 42.8, 15.5, 33.1%"
same,growth,OVCAR-8 ovarian; runs of 2009,"inactive: 47.9, 48.4, 42.3 (2×), 36.7, 39.4 (2×), 48.2 (2×), 57.6, 60.9, 47.1, 45.6, 42.6, 47.7, 43.1, 67, 61.8, 43.7, 39.2, 36.6, 40.1 (2×), 35, 37.3, 26.1, 36.3 (2×), 29.9, 41.5 (3×), 39.8 (3×), 41.8 (2×), 42.8 (2×), 54.6, 45.4, 25.3, 37, 31.7, 36.1, 36.5, 37.9, 32.6, 35.6, 32.7, 27.3, 34.4, 39 (2×), 28.3, 40.3 (2×), 30.4, 33.7, 30.9, 51.8, 41.3, 40.2, 44.3, 26, 38.4, 35.4%"
same,growth,OVCAR-8 ovarian; runs of 2010,"inactive: 40.8, 41.2, 38.8 (2×), 41 (3×), 47.5, 40.6, 47.7, 51.5, 39.8, 47.4, 41.6 (2×), 39.3, 32.9, 36.9, 46.9, 30.3, 36.3, 34.4, 43.6, 47, 32.3, 38.5, 38.2, 42, 37.2, 38.1, 44.6, 30.7, 24.7, 36.5, 42.6, 46.7, 43.3, 44.3, 45.3, 45.4 (2×), 49.4, 50.7, 31.1, 37.8, 46.1, 40.3, 43.7, 39.7, 43.1, 42.8%"
same,growth,OVCAR-8 ovarian; runs of 2011,"inactive: 41.1, 40.2 (2×), 38.5, 41, 38.4 (2×), 44.1 (2×), 44.8 (2×), 30.9, 42, 27, 46, 39.8, 47.1, 56, 47.5, 48.3, 46.1, 47, 46.2, 44.6, 46.6, 45, 39.7, 36.7, 41.8, 47.8, 41.3, 35.8 (2×), 42.4, 38.2, 37.1, 39.9, 35.9, 50.3 (2×), 41.2, 35.5, 39.5, 48, 69.5, 39, 43.1 (2×), 42.9, 36.8, 42.3, 42.8% (2×)"
